From patent publication US20220396616A1 (SANYOU BIOPHARMACEUTICALS, published 2022)

Tests used:
[1] = biological target: human CLDN18.2 (human); experiment: cell-based or functional assay
[2] = biological target: T1, human CLDN18.1 (human, UniProt P56856 1-261); experiment: flow cytometry on human CLDN18.1-HEK293 cells
T1 construct: Full length, overexpressed on HEK293 cells; also called hCLDN18.1; human CLDN18.1-HEK293

[3] = biological target: T2, mouse CLDN18.1 (mouse, UniProt P56857 1-264); experiment: flow cytometry on mouse CLDN18.1-HEK293 cells
T2 construct: Full length, overexpressed on HEK293 cells; also called mouse CLDN18.1-HEK293
T2 sequence (P56857 whole entry): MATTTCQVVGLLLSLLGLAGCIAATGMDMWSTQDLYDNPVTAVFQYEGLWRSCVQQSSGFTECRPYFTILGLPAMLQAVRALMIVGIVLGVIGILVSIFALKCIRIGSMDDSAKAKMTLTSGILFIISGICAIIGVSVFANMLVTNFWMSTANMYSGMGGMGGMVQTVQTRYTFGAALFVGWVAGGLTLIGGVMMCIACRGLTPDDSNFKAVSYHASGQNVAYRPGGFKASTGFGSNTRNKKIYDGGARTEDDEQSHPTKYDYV

T1 sequence (P56856 whole entry): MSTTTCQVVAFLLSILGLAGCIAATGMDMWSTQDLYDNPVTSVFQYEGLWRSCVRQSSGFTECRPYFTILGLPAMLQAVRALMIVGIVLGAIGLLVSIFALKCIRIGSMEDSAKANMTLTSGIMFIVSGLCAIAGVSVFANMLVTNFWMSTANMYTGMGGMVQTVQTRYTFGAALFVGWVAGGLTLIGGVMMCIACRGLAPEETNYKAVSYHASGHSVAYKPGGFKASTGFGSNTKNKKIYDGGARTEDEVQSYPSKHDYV

B1: chimeric antibody NA1-S (Fc fusion)
chain: EVQVQESGGGLVQAGTSLRLSCAASGNIFRIDTMGWYRQAPGKQRELVAGISRGGTTTYAHSVKERFTISRDNAKNTMYLQMNSLKSEDTAGYYCNAQAWDPGTFRYLEVWGQGTLVTVSA[human IgG1 Fc omitted]
notes: VHH-Fc (hIgG1); also called candidate antibody NA1-S; NA1-S antibody
CDC cell killing on human CLDN18.2-KATOIII tumor cells, EC50 [1]: 1.91 nM
Fab-ZAP cell killing (internalization) on CLDN18.2-HEK293T cells, IC50 [1]: 0.1 nM
binding result [2]: no binding (tested: 10 µg/mL)
binding result [3]: no binding (tested: 10 µg/mL)

B2: chimeric antibody NA3-S (Fc fusion)
chain: QVQLQESGGGLVQPGGSLRLSCAASGSIFNIPVMGWYRQAPGKQRELVAGISTGGTTNYGDSVKGRFTISRDNAKNTVYLQMNSLKPEDTAVYYCNVLVVSGIGSTLEVWGQGTLVTVS[human IgG1 Fc omitted]
notes: VHH-Fc (hIgG1); also called candidate antibody NA3-S; NA3-S antibody
CDC cell killing on human CLDN18.2-KATOIII tumor cells, EC50 [1]: 4.83 nM
Fab-ZAP cell killing (internalization) on CLDN18.2-HEK293T cells, IC50 [1]: 0.07 nM
binding result [2]: no binding (tested: 10 µg/mL)
binding result [3]: no binding (tested: 10 µg/mL)

B3: chimeric antibody NA6-S (Fc fusion)
chain: QVQLQESGGGLVQPGGSLRLSCAASGTFFNIPVMGWYRQAPGKQRELVAGISTGGTTNYGDSVKGRFTISRDNAKNTVYLQMNSLKPEDTAVYYCNVLVISGIGSHLEVWGQGTLVTVS[human IgG1 Fc omitted]
notes: VHH-Fc (hIgG1); also called candidate antibody NA6-S; NA6-S antibody
binding result [2]: no binding (tested: 10 µg/mL)
binding result [3]: no binding (tested: 10 µg/mL)

B4: chimeric antibody NA5-S (Fc fusion)
chain: EVQVVESGGGLVQPGGSLRLSCAASGSILHIPVMSWYRQAPGKQRELVAGISTGGTTNYGDSVKGRFTISRDNAKNTVYLQMNSLKPEDTAAYYCNVLVVSGIGSHLEVWGQGTLVTVSS[human IgG1 Fc omitted]
notes: VHH-Fc (hIgG1); also called candidate antibody NA5-S; NA5-S antibody
binding result [2]: no binding (tested: 10 µg/mL)
binding result [3]: no binding (tested: 10 µg/mL)
